From PubChem BioAssay (NCATS)
“And” between values parts separate entries of the source, which are not always exact repeats. Equal entries are not always repeated. Inconclusive means that the source gave no clear call. Such entries were picked first, then a sample of the others. For some assays here: Potencies of inconclusive entries are doubtful fits and often do not repeat. For some assays here: A note “side channel” means that the fit belongs to a control or component signal, not to the main read-out. The source made the active and inactive calls. Unless noted, calls come from the whole dose curve.

Experiments:
[1] = biological target: Estrogen receptor (Homo sapiens) (UniProt P03372); test: qHTS assay for small molecule antagonists of estrogen receptor alpha signaling (AID 588513; active = well fitted curve in the direction sought with a large enough effect in the signal ratio, with a control signal flat, not every such curve was filed as active; inconclusive = small, poorly fitted or top-dose-only effect, or effect the other way, or a change in a side signal; inactive = no such curve, though single readings can be large or run the other way; the % refers to the signal ratio; note: potency is the fitted concentration of half-maximal effect; for activity, negative = inhibition: % is set by controls: 0 for no effect and ±100 for the full control effect); conditions: ER-alpha-UAS-bla HEK293, beta-lactamase ratio, antagonist mode; activity, negative = inhibition: at 76.9 µM (top of the series) unless noted
UniProt P03372, sequence (P03372 whole entry, looked up): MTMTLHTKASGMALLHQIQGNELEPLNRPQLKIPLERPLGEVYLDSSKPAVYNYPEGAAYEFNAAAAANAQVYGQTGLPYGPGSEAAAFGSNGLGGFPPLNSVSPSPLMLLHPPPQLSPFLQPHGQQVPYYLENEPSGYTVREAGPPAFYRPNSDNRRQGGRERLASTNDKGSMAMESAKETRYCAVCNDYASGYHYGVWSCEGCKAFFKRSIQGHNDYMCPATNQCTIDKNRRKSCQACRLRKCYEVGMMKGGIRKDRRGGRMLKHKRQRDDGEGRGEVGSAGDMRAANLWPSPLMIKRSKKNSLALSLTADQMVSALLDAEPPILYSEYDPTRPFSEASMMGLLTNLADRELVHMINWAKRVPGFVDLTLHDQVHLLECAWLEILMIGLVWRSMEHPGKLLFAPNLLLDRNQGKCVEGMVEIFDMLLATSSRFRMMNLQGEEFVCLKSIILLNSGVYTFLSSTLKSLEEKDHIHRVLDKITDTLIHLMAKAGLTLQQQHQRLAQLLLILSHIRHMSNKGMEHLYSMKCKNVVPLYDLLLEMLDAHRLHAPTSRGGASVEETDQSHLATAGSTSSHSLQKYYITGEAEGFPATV
Summary of the method: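 Cells were plated at 5000/well and incubated 4 h at 37 C. Compounds were added as 1:2 dilution series, duplicates. 17-beta-estradiol (0.5nM final) was added for 18 h before CCF4 detection.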

[2] = biological target: Estrogen receptor (Homo sapiens) (UniProt P03372); test: qHTS assay for small molecule agonists of estrogen receptor alpha signaling (AID 588514); conditions: ER-alpha-UAS-bla HEK293, beta-lactamase ratio, 18 h; activation: at 76.8 µM (top of the series), percent of full estradiol response, vehicle zero; note: potency is the fitted concentration of half-maximal effect; nearly all actives have a fitted effect of over 70% in size
Summary of the method: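 ER-alpha-UAS-bla GripTite HEK293 cells, 5000/well in 2% charcoal/dextran-stripped FBS medium, treated with compound titrations 18 h at 37 C. CCF4 beta-lactamase read by fluorescence after 2 h RT; normalised to 20 nM 17-beta-estradiol (100%) and DMSO (0%), Hill fit for EC50 and efficacy.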

[3] = biological target: Androgen receptor (Homo sapiens) (UniProt P10275); test: qHTS assay for small molecule agonists of androgen receptor signaling (AID 588515; active = well fitted curve in the direction sought with a large enough effect in the signal ratio, with a control signal flat; inconclusive = small, poorly fitted or top-dose-only effect, or effect the other way, or a change in a side signal; inactive = no such curve, though single readings can be large or run the other way; the % refers to the signal ratio; note: potency is the fitted concentration of half-maximal effect); conditions: AR-UAS-bla HEK293, beta-lactamase ratio, agonist 16 h; activation: stronger effect = higher value
UniProt P10275, sequence (P10275 whole entry, looked up): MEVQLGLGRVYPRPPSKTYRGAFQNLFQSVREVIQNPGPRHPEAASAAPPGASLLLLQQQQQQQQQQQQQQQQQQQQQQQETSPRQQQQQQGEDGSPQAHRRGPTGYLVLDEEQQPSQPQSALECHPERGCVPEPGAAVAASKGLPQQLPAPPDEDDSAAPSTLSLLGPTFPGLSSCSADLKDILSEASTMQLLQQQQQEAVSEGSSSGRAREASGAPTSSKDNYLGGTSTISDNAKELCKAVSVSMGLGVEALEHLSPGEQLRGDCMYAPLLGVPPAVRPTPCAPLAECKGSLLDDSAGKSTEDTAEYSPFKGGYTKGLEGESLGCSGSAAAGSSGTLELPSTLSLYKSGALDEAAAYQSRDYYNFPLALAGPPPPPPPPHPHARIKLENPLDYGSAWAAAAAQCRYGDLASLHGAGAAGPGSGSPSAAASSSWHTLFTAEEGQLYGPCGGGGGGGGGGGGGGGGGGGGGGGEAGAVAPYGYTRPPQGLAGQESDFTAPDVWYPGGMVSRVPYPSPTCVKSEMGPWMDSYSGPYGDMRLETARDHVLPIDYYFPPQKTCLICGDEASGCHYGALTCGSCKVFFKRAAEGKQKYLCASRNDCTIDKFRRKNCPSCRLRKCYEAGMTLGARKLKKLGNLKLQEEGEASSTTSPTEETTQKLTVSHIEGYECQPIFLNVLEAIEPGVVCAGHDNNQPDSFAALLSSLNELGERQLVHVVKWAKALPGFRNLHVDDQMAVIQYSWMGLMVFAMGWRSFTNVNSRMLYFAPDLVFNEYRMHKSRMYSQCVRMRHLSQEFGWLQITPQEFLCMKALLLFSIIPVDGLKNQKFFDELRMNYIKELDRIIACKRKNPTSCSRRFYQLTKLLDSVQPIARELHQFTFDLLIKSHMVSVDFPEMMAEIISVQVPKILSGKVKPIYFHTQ
Summary of the method: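 EC50 and efficacy came from Hill fits of titrations (up to 92 uM) normalized to 30 nM R1881 as 100% and DMSO as 0%. Compound exposure was 16 h at 37 C on AR-UAS-bla HEK293 cells, with a 405/460/530 nm CCF4 fluorescence read.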

[4] = biological target: Bile acid receptor (Homo sapiens) (UniProt Q96RI1); test: qHTS assay for small molecule antagonists of farnesoid X receptor signaling (AID 588526); conditions: HEK293T FXR-UAS-bla, beta-lactamase ratio, antagonist mode; activity change, negative = inhibition: at 76.7 µM (top of the series); note: potency is the fitted concentration of half-maximal effect
Summary of the method: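 Concentration-response titrations were fitted to the Hill equation for half-maximal inhibition and maximal response, with data normalised to 50 uM chenodeoxycholic acid and DMSO control wells. Cells: FXR-UAS-bla HEK293T, dialyzed FBS.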

[5] = biological target: Peroxisome proliferator-activated receptor delta (Homo sapiens) (UniProt Q03181); test: qHTS assay for small molecule agonists of peroxisome proliferator-activated receptor delta signaling (AID 588534); conditions: HEK293T PPARdelta-UAS-bla, beta-lactamase ratio, 18 h; activation: at 76.7 µM (top of the series); note: potency is the fitted concentration of half-maximal effect
UniProt Q03181, sequence (Q03181 whole entry, looked up): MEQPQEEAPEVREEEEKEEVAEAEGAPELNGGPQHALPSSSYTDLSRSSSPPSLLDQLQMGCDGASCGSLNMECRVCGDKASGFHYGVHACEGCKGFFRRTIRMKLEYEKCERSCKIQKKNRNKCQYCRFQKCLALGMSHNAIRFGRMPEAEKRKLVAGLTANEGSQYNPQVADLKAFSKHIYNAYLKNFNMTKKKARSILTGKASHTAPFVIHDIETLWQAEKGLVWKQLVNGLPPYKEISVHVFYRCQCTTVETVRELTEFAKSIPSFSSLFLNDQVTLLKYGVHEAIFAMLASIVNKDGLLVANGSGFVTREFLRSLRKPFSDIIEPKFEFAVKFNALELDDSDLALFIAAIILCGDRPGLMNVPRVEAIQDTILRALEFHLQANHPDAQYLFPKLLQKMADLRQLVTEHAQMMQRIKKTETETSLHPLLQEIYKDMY
Summary of the method: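 Cells carrying a PPAR-delta beta-lactamase reporter were treated with compounds for 18 h at 37 °C in agonist mode. CCF4 fluorescence was read after 2 h; EC50 and efficacy from Hill fits.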

[6] = biological target: Peroxisome proliferator-activated receptor delta (Homo sapiens) (UniProt Q03181); test: qHTS assay for small molecule antagonists of peroxisome proliferator-activated receptor delta signaling (AID 588535; active = well fitted inhibition curve with a large enough effect in the signal ratio, with a control signal flat, not every such curve was filed as active; inconclusive = small, poorly fitted or top-dose-only effect, or effect the other way, or a change in a side signal; inactive = no such curve, though single readings can be large or run the other way; the % refers to the signal ratio; note: potency is the fitted concentration of half-maximal effect); conditions: HEK293T PPARd-UAS-bla, beta-lactamase FRET ratio, 18 h; activity change, negative = inhibition: at 76.7 µM (top of the series) unless noted
Summary of the method: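 Reporter: UAS-bla under PPAR-delta response element, HEK293T host. Medium: 2% charcoal/dextran FBS. Dosing: titration, 18 hrs, 37 C. Detection: CCF4, 2 hrs RT, 405 ex/460 and 530 em.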

[7] = biological target: Peroxisome proliferator-activated receptor gamma (Homo sapiens) (UniProt P37231); test: qHTS assay for small molecule agonists of peroxisome proliferator-activated receptor gamma signaling (AID 588536; active = well fitted curve in the direction sought with a large enough effect in the signal ratio, with a control signal flat, not every such curve was filed as active; inconclusive = small, poorly fitted or top-dose-only effect, or effect the other way, or a change in a side signal; inactive = no such curve, though single readings can be large or run the other way; the % refers to the signal ratio;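 note: 0% = DMSO basal wells and 100% = rosiglitazone at 2 µM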); conditions: HEK293 PPARg-UAS-bla, beta-lactamase ratio, 16 h; activation: at 76.7 µM (top of the series), percent of rosiglitazone response, DMSO as zero unless noted
Summary of the method: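 GeneBLAzer PPAR-gamma-UAS-bla HEK293 cells in 1% charcoal/dextran-treated FBS medium were treated 16 h at 37 C with compounds. Beta-lactamase activity was read by CCF4 ratio (460/530 nm). Response was normalized to 2 uM rosiglitazone (100%) and DMSO, then Hill-fitted for EC50 and efficacy.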

[8] = biological target: Peroxisome proliferator-activated receptor gamma (Homo sapiens) (UniProt P37231); test: qHTS assay for small molecule antagonists of peroxisome proliferator-activated receptor gamma signaling (AID 588537; active = well fitted inhibition curve with a large enough effect in the signal ratio, with a control signal flat, not every such curve was filed as active; inconclusive = small, poorly fitted or top-dose-only effect, or effect the other way, or a change in a side signal; the % refers to the signal ratio; note: potency is the fitted concentration of half-maximal effect;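 note: reporter cells co-stimulated with 50 nM rosiglitazone agonist during compound treatment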; for activity, negative = inhibition: % of control where 0% means no effect); conditions: HEK293 PPARg-UAS-bla, beta-lactamase ratio, antagonist mode; activity, negative = inhibition: at 76.8 µM (top of the series)
Summary of the method: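 We seeded GeneBLAzer HEK293 reporter cells at 3000 per well, allowed 6-6.5 h attachment at 37 C, then co-treated with test compound titrations and 50 nM rosiglitazone overnight (16 h). Inhibition was quantified from 460/530 nm emission ratios.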

[9] = biological target: Vitamin D3 receptor (Homo sapiens) (UniProt P11473); test: qHTS assay for small molecule antagonists of vitamin D receptor signaling (AID 588541); conditions: HEK293T VDR-UAS-bla, beta-lactamase ratio, antagonist mode; activity change, negative = inhibition: at 76.7 µM (top of the series); note: potency is the fitted concentration of half-maximal effect
[10] = biological target: Vitamin D3 receptor (Homo sapiens) (UniProt P11473); test: qHTS assay for small molecule agonists of vitamin D receptor signaling (AID 588543); conditions: HEK293T VDR-UAS-bla, beta-lactamase ratio, 16 h; activation: at 76.8 µM (top of the series); note: potency is the fitted concentration of half-maximal effect
Summary of the method: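 qHTS in agonist mode: compound titrations stimulate a VDR-driven β-lactamase reporter in HEK293T cells over 16 h at 37 °C. Response normalized to 50 nM 1α,25-dihydroxyvitamin D3 = 100%, DMSO = 0%; Hill fitting gives EC50 and maximal response.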

[11] = biological target: Retinoic acid receptor RXR-alpha (Homo sapiens) (UniProt P19793); test: qHTS assay for small molecule agonists of retinoid X receptor alpha signaling (AID 588544); conditions: HEK293T RXRa-UAS-bla, beta-lactamase reporter, 18 h; activation: at 76.7 µM (top of the series) unless noted; note: potency is the fitted concentration of half-maximal effect
UniProt P19793, sequence (P19793 whole entry, looked up): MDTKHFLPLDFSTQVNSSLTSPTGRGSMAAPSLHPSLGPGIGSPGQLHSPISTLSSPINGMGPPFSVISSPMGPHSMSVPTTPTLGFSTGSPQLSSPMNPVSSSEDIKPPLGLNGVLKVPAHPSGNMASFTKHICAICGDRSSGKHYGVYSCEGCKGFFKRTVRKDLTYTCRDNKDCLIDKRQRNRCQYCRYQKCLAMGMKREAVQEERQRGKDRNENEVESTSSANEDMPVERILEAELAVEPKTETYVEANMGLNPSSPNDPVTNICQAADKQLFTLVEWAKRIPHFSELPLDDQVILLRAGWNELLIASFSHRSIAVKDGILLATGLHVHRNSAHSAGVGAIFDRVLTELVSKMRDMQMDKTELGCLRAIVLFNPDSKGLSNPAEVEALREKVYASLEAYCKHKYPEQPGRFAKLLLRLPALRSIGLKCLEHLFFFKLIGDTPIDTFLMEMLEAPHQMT

[12] = biological target: Retinoic acid receptor RXR-alpha (Homo sapiens) (UniProt P19793); test: qHTS assay for small molecule antagonists of retinoid X receptor alpha signaling (AID 588546; active = well fitted inhibition curve with a large enough effect in the signal ratio, with a control signal flat, not every such curve was filed as active; inconclusive = small, poorly fitted or top-dose-only effect, or effect the other way, or a change in a side signal; inactive = no such curve, though single readings can be large or run the other way; the % refers to the signal ratio; note: potency is the fitted concentration of half-maximal effect); conditions: HEK293T RXRa-UAS-bla, beta-lactamase ratio, antagonist mode
Summary of the method: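 Beta-lactamase reporter inhibition, read as CCF4 fluorescence ratio (ex 405, em 460/530 nm) after 2 h at RT. HEK293T UAS-bla cells, 2500/well, were stimulated with 9-cis-RA at 500 or 100 nM final alongside test compound for 18 h at 37 C.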

[13] = biological target: Thyroid hormone receptor beta (Homo sapiens) (UniProt P10828); test: qHTS assay for small molecule antagonists of thyroid hormone receptor beta signaling (AID 588547; active = well fitted inhibition curve with a large enough effect in the signal ratio, with a control signal flat, not every such curve was filed as active; inconclusive = small, poorly fitted or top-dose-only effect, or effect the other way, or a change in a side signal; the % refers to the signal ratio; note: potency is the fitted concentration of half-maximal effect); conditions: TR-UAS-bla HEK293, beta-lactamase ratio, antagonist mode, 18 h
UniProt P10828, sequence (P10828 whole entry, looked up): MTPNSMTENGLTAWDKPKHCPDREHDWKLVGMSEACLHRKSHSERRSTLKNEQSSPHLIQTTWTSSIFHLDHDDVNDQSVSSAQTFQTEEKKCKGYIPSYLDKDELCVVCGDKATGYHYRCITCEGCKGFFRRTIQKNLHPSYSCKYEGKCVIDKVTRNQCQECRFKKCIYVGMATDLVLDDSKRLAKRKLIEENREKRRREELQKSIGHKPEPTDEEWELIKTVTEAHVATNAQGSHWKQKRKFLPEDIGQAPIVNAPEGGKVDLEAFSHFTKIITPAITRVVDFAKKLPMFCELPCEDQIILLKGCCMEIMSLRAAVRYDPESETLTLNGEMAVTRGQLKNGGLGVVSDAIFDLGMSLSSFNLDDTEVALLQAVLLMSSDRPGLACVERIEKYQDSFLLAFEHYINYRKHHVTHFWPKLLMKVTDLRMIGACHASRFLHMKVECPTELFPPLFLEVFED
Summary of the method: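 TR-UAS-bla GripTite HEK293 cells in 2% charcoal/dextran FBS medium were preincubated 4 h at 37 C, given compound (0.59 nM to 92 uM) plus 0.4 nM T3 (final) for 18 h, then CCF4 for 2 h at RT; Hill fit gave IC50.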

[14] = qHTS assay for small molecule agonists of the antioxidant response element (ARE) signaling pathway (AID 651741; active = well fitted activation curve with a large enough effect in the signal ratio; inconclusive = small, poorly fitted or top-dose-only effect, or effect the other way, or a change in a side signal; the % refers to the signal ratio; note: potency is the fitted concentration of half-maximal effect); conditions: HepG2 ARE-bla reporter, beta-lactamase FRET ratio, 16 h; activation: at 96 µM (top of the series) unless noted
Summary of the method: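 Compounds in DMSO are pinned onto HepG2 ARE-bla cells (2,000/well) that were preincubated 5 h; plates stay 16 h at 37 C, then beta-lactamase activity is detected with LiveBLAzer B/G substrate by fluorescence.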

[15] = qHTS assay for small molecule activators of the nuclear factor-kappa B (NF-kB) signaling pathway (AID 651749; active = well fitted activation curve with a large enough effect in the signal ratio; inconclusive = small, poorly fitted or top-dose-only effect, or a change in a side signal; the % refers to the signal ratio; note: potency is the fitted concentration of half-maximal effect); conditions: NF-kB-bla ME-180 cells, beta-lactamase FRET ratio, 16 h; activation: stronger effect = higher value
Summary of the method: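 Screening used 2,000 ME-180 reporter cells per well exposed to pinned compound (23 nL) or DMSO; after 16 hr at 37C, beta-lactamase expression under NF-kB control was assessed through FRET.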

[16] = qHTS assay for small molecule agonists of the antioxidant response element (ARE) signaling pathway measured by Nrf2-dependant transcriptional activity (AID 720636; active = well fitted curve in the direction sought with a large enough effect in the repeat runs; inconclusive = weak or mixed curves; inactive = no such curve, though single readings can be large; an effect the other way counts as inactive or inconclusive; note: potency is the fitted concentration of half-maximal effect)
Summary of the method: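 We exposed ARE-luc HepG2 cells, seeded in assay medium with 1% dialyzed FBS and allowed 6 hr to adhere, to test compounds overnight (16 hr, 37 C) before measuring luciferase with ONE-Glo.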

[17] = qHTS assay for small molecule agonists of the antioxidant response element (ARE) signaling pathway measured by Nrf2-dependant transcriptional activity - cell viability counter screen (AID 720653; active = well fitted curve in the direction sought with a large enough effect in the repeat runs; inconclusive = weak or mixed curves; inactive = no such curve, though single readings can be large; an effect the other way counts as inactive or inconclusive; note: potency is the fitted concentration of half-maximal effect); conditions: ARE-bla HepG2 viability, CellTiter-Glo ATP luminescence, 16 h; max response: stronger effect = lower value
Summary of the method: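 ARE-bla HepG2 cells (2,000/well) rested 5 hrs at 37C/5% CO2, then exposed to compounds in DMSO for 16 hrs. Viability was read in the same wells as intracellular ATP by luminescence, 30 min at room temperature after reagent addition.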

[18] = MultiTox-Fluor Cytotoxicity Assay - LYMP1-002 - Dead Cells (AID 960; active = well fitted curve in the direction sought with a large enough effect; inconclusive = small, poorly fitted or top-dose-only effect, or another doubt; inactive = no such curve, though single readings can be large; an effect the other way counts as inactive or inconclusive; note: potency is the fitted concentration of half-maximal effect; nearly all actives have a fitted effect of over 60% in size); conditions: LYMP1-002 lymphoblastoid cells, dead-cell protease fluorescence; cytotoxicity (dead cells): at 46.1 µM (top of the series)
Summary of the method: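 Human lymphoblastoid LYMP1-002 cells, 2500/well, treated 16 h at 37 C; dead-cell protease cleavage of bis-AAF-R110 read by fluorescence (485/520); normalized to DMSO and 15 uM tetraoctylammonium bromide; AC50 from Hill fit.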

[19] = biological target: Glucocorticoid receptor (Homo sapiens) (UniProt P04150); test: qHTS assay for small molecule agonists of glucocorticoid receptor signaling (AID 588532; active = well fitted curve in the direction sought with a large enough effect in the signal ratio, with a control signal flat; inconclusive = small, poorly fitted or top-dose-only effect, or a change in a side signal; inactive = no such curve, though single readings can be large or run the other way; the % refers to the signal ratio; note: potency is the fitted concentration of half-maximal effect); conditions: HeLa MMTV-bla, beta-lactamase ratio, agonist, 18 h; activation: stronger effect = higher value, percent of dexamethasone control, DMSO zero
Summary of the method: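 Titration series, up to 92 uM, applied to GRE-bla HeLa cells for 18 h at 37 C. Detection by CCF4 FRET substrate after 2 h at RT.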

[20] = biological target: Glucocorticoid receptor (Homo sapiens) (UniProt P04150); test: qHTS assay for small molecule antagonists of glucocorticoid receptor signaling (AID 588533; active = well fitted inhibition curve with a large enough effect in the signal ratio, with a control signal flat, not every such curve was filed as active; inconclusive = small, poorly fitted or top-dose-only effect, or effect the other way, or a change in a side signal; the % refers to the signal ratio;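 note: cells stimulated with 2 nM dexamethasone as agonist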; note: potency is the fitted concentration of half-maximal effect; for activity change, negative = inhibition: % is set by controls: 0 for no effect and ±100 for the full control effect); conditions: HeLa MMTV-bla, GRE beta-lactamase ratio, antagonist mode, 18 h; activity change, negative = inhibition: at 76.8 µM (top of the series) unless noted
[21] = qHTS assay to identify small molecules that stimulate interleukin-8 (IL-8) secretion (AID 651758; active = well fitted activation curve with a large enough effect in the signal ratio; inconclusive = small, poorly fitted or top-dose-only effect, or effect the other way, or a change in a side signal; the % refers to the signal ratio; note: potency is the fitted concentration of half-maximal effect); conditions: HTRF ratio (665/615); activation: at 92.2 µM (top of the series)
Summary of the method: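 THP-1, 2000 cells/well; cpd 16 h, 37 C; add cryptate + XL665 anti-IL-8 Abs; RT 1-3 h; TR-FRET read.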

[22] = biological target: Peroxisome proliferator-activated receptor alpha (Homo sapiens) (UniProt Q07869); test: qHTS assay for small molecule agonists of the peroxisome proliferator-activated receptor alpha (PPARalpha) signaling pathway (AID 651778; active = well fitted curve in the direction sought with a large enough effect; inconclusive = small, poorly fitted or top-dose-only effect, or another doubt; inactive = no such curve, though single readings can be large; an effect the other way counts as inactive or inconclusive; note: potency is the fitted concentration of half-maximal effect); conditions: PathHunter PPARalpha complementation, chemiluminescence, 6 h; max response: stronger effect = higher value
UniProt Q07869, sequence (Q07869 whole entry, looked up): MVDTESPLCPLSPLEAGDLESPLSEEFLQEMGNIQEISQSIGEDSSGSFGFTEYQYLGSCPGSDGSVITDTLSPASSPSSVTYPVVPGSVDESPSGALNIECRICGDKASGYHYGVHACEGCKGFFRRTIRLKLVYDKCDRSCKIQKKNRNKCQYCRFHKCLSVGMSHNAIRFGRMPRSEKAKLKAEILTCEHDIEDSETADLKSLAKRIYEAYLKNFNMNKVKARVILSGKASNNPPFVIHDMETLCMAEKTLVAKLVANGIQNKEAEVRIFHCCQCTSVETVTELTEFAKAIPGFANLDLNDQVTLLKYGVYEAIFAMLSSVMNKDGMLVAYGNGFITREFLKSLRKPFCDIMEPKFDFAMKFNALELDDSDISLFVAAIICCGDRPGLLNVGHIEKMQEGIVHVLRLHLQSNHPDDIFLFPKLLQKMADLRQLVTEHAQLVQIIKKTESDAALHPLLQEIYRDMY
Summary of the method: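 Cells plated at 2,000/well and held overnight at 37 C, 5% CO2, then compound added by pin tool for 6 hr; after PathHunter detection reagent and 60 min at room temperature, chemiluminescence from enzyme complementation was read.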

[23] = qHTS assay for small molecule antagonists of the retinoid-related orphan receptor gamma (ROR-gamma) signaling pathway - cell viability counter screen (AID 720652; active = well fitted curve in the direction sought with a large enough effect in the repeat runs; inconclusive = weak or mixed curves; inactive = no such curve, though single readings can be large; an effect the other way counts as inactive or inconclusive;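 note: potency is the fitted concentration of half-maximal effect; compound exposure lasted 16 hr before ATP read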)
Summary of the method: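 CHO cells carrying TET-inducible ROR and RORE-luciferase reporter, plated 5 hr, then dosed with compound plus doxycycline. After 16 hr at 37 C, viability read as intracellular ATP by CellTiter-Glo luminescence.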
Tags give direction and shape of the fitted curve or compound fluorescence and quenching.

C1CC[CH]([Sn]([CH]2CCCCC2)[CH]2CCCCC2)CC1
Potency [1]: inconclusive: 25.1 µM [falling, full curve] | Potency [2]: inconclusive: 44.7 µM [side channel, rising, partial curve, poor fit] | Potency [3]: inconclusive: 11.2 µM [inhibitor, full curve] | Potency [4]: inconclusive: 25.1 µM [side channel, single point] | Potency [5]: inconclusive: 28.2 µM [fluorescent, side channel, partial curve] | Potency [6]: inconclusive: 56.2 µM [side channel, rising, partial curve, poor fit] | activation [7]: inconclusive: -10.7% | activity, negative = inhibition [8]: inconclusive: -64.8% | Potency [9]: inconclusive: 22.4 µM [side channel, rising, full curve] | Potency [10]: inconclusive: 8.91 µM [side channel, rising, full curve, poor fit] | Potency [11]: inconclusive: 0.794 µM [activator, full curve, poor fit] | Potency [12]: inconclusive: 15.8 µM [inhibitor, full curve, poor fit] | Potency [13]: inconclusive: 14.1 µM [side channel, rising, full curve, poor fit] | Potency [14]: active: 19.3 µM | Potency [15]: inconclusive: 31.6 µM [activator, partial curve] | Potency [16]: active: 13.7 µM | Potency [17]: inconclusive: 12.6 µM [cytotoxic, full curve]

c1ccc(Nc2cccc3ccccc23)cc1
Potency [18]: active: 31.6 µM | Potency [1]: inconclusive: 22.4 µM [falling, partial curve, poor fit] | activity, negative = inhibition [1]: inconclusive: -85.1% | Potency [2]: inconclusive: 28.2 µM [activator, single point] and inconclusive: 10 µM [activator, partial curve] | Potency [19]: inconclusive: 0.0025 µM [side channel, falling, full curve, poor fit] | Potency [20]: inconclusive: 44.7 µM [inhibitor, partial curve, poor fit] | activity change, negative = inhibition [20]: inconclusive: -11.4% | Potency [8]: active: 39.8 µM and active: 44.7 µM | Potency [9]: inconclusive: 39.8 µM [falling, partial curve] | Potency [10]: inconclusive: 28.2 µM [fluorescent, side channel, full curve, poor fit] | Potency [14]: active: 42.2 µM and active: 24.3 µM | Potency [15]: inconclusive: 50.1 µM [side channel, falling, single point] | Potency [21]: inconclusive: 75 µM [activator, single point] | Potency [22]: inconclusive: 50.1 µM [activator, single point] | Potency [23]: inconclusive: 75 µM [cytotoxic, single point]
